Source: a collection of fitness landscapes (doi:10.1126/science.1257360)
This is one part of the list.

B1: PhoQ; a variant is named by its letters at X, in order, P23837 (parent)
chain: MKKLLRLFFPLSLRVRFLLATAAVVLVLSLAYGMVALIGYSVSFDKTTFRLLRGESNLFYTLAKWENNKLHVELPENIDKQSPTMTLIYDENGQLLWAQRDVPWLMKMIQPDWLKSNGFHEIEADVNDTSLLLSGDHSIQQQLQEVREDDDDAEMTHSVAVNVYPATSRMPKLTIVVVDTIPVELKSSYMVWSWFIYVLSANLLLVIPLLWVAAWWSLRPIEALAKEVRELEEHNRELLNPATTRELTSLVRNLNRLLKSERERYDKYRTTLTDLTHSLKTPLXXLQXXLRSLRSEKMSVSDAEPVMLEQISRISQQIGYYLHRASMRGGTLLSRELHPVAPLLDNLTSALNKVYQRKGVNISLDISPEISFVGEQNDFVEVMGNVLDNACKYCLEFVEISARQTDEHLYIVVEDDGPGIPLSKREVIFDRGQRVDTLRPGQGVGLAVAREITEQYEGKIVAGESMLGGARMEVIFGRQHSAPKDE

Variants of: B1
Assay: enrichment ratio after two sorts for PhoP signalling (ratio (wild type AVST 3.29)); higher = more functional
Settings: with PhoP (E. coli)

Row | Variant | enrichment ratio
1 | FQDR | ≤ 0.25
2 | EMPI | ≤ 0.25
3 | TLDT | ≤ 0.25
4 | WQRP | ≤ 0.25
5 | EGII | ≤ 0.25
6 | PMWN | ≤ 0.25
7 | DTQY | ≤ 0.25
8 | RQNG | ≤ 0.25
9 | IVIE | ≤ 0.25
10 | QGLW | ≤ 0.25
11 | IKCQ | ≤ 0.25
12 | SHNE | ≤ 0.25
13 | WDCD | ≤ 0.25
14 | AIMR | 16.6
15 | KCPN | ≤ 0.25
16 | IRTC | 0.402
17 | VCND | ≤ 0.25
18 | WMSY | ≤ 0.25
19 | STKE | ≤ 0.25
20 | HCWK | ≤ 0.25
21 | NMFN | ≤ 0.25
22 | APMS | ≤ 0.25
23 | KENN | ≤ 0.25
24 | LCFD | ≤ 0.25

Row | Variant | enrichment ratio
25 | YHVC | ≤ 0.25
26 | GPIC | ≤ 0.25
27 | CYMR | ≤ 0.25
28 | YSEG | ≤ 0.25
29 | MYVY | ≤ 0.25
30 | GSAW | ≤ 0.25
31 | MQIG | ≤ 0.25
32 | LMWW | ≤ 0.25
33 | FWGS | ≤ 0.25
34 | AHGK | ≤ 0.25
35 | GKEL | ≤ 0.25
36 | HSAH | ≤ 0.25
37 | ITVY | ≤ 0.25
38 | RFPH | ≤ 0.25
39 | ARNK | ≤ 0.25
40 | WNME | ≤ 0.25
41 | HYMW | ≤ 0.25
42 | FDKA | ≤ 0.25
43 | IFSG | ≤ 0.25
44 | IELK | ≤ 0.25
45 | YPNL | ≤ 0.25
46 | VLAS | ≤ 0.25
47 | QLAF | ≤ 0.25
48 | HDAH | ≤ 0.25

Row | Variant | enrichment ratio
49 | IQAQ | 0.98
50 | MGCR | ≤ 0.25
51 | SSPA | ≤ 0.25
52 | TQLE | 4.93
53 | WGCW | ≤ 0.25
54 | THGF | 8.21
55 | MIFA | ≤ 0.25
56 | TVGI | 7.34
57 | LKQE | ≤ 0.25
58 | QLIR | ≤ 0.25
59 | QNMQ | ≤ 0.25
60 | WALD | ≤ 0.25
61 | FGIP | ≤ 0.25
62 | FMGI | ≤ 0.25
63 | RCQV | ≤ 0.25
64 | RVIQ | ≤ 0.25
65 | VHGV | ≤ 0.25
66 | ITQI | ≤ 0.25
67 | NSFM | ≤ 0.25
68 | QGVI | ≤ 0.25
69 | GACF | ≤ 0.25
70 | YDLV | ≤ 0.25
71 | MKSQ | ≤ 0.25
72 | VNKE | ≤ 0.25

Row | Variant | enrichment ratio
73 | RYLY | ≤ 0.25
74 | PEGG | ≤ 0.25
75 | QFRR | ≤ 0.25
76 | GCMR | ≤ 0.25
77 | YMTI | ≤ 0.25
78 | THFY | ≤ 0.25
79 | LDGK | ≤ 0.25
80 | RISM | ≤ 0.25
81 | WDEA | ≤ 0.25
82 | YSVP | ≤ 0.25
83 | VIGT | ≤ 0.25
84 | EKCL | ≤ 0.25
85 | QMFG | ≤ 0.25
86 | NKGP | ≤ 0.25
87 | YKGV | ≤ 0.25
88 | AHGP | ≤ 0.25
89 | ITVP | ≤ 0.25
90 | SNDT | ≤ 0.25
91 | RHIR | ≤ 0.25
92 | KRWN | ≤ 0.25
93 | ESPV | ≤ 0.25
94 | MVFT | ≤ 0.25
95 | GEYM | ≤ 0.25
96 | ILRN | ≤ 0.25

Row | Variant | enrichment ratio
97 | SEVV | 13.1
98 | NSRK | ≤ 0.25
99 | KKWP | ≤ 0.25
100 | GVSA | ≤ 0.25
101 | EQVA | ≤ 0.25
102 | ETVL | ≤ 0.25
103 | FFAL | ≤ 0.25
104 | VGYT | ≤ 0.25
105 | AQMY | ≤ 0.25
106 | GEHQ | ≤ 0.25
107 | TSCM | 25.8
108 | GYQG | ≤ 0.25
109 | YQLE | 2.6
110 | DVAE | ≤ 0.25
111 | MGAD | ≤ 0.25
112 | TWWS | ≤ 0.25
113 | GDPA | ≤ 0.25
114 | SIKQ | ≤ 0.25
115 | GSQI | ≤ 0.25
116 | VCMK | ≤ 0.25
117 | QYHY | ≤ 0.25
118 | KSMQ | ≤ 0.25
119 | MPLK | ≤ 0.25
120 | DVGC | ≤ 0.25

Row | Variant | enrichment ratio
121 | GQIL | 4.32
122 | EQLR | ≤ 0.25
123 | EARV | ≤ 0.25
124 | IKTC | ≤ 0.25
125 | QGLY | ≤ 0.25
126 | QRKS | ≤ 0.25
127 | VQGH | ≤ 0.25
128 | NNEH | ≤ 0.25
129 | LNQL | ≤ 0.25
130 | QPIF | ≤ 0.25
131 | KSCS | ≤ 0.25
132 | GEFP | ≤ 0.25
133 | WNSD | ≤ 0.25
134 | GIVP | ≤ 0.25
135 | RMSR | ≤ 0.25
136 | LIAV | ≤ 0.25
137 | KNWY | ≤ 0.25
138 | MGTN | ≤ 0.25
139 | QSNE | ≤ 0.25
140 | PTRH | ≤ 0.25
141 | HHKF | ≤ 0.25
142 | QGFF | 13.9
143 | RTGV | ≤ 0.25
144 | PSYP | ≤ 0.25

Row | Variant | enrichment ratio
145 | EINL | ≤ 0.25
146 | YVML | 0.518
147 | KMMH | ≤ 0.25
148 | RALW | ≤ 0.25
149 | TGPQ | ≤ 0.25
150 | KFHF | ≤ 0.25
151 | RAKV | ≤ 0.25
152 | HQMA | ≤ 0.25
153 | QHHE | ≤ 0.25
154 | DYSS | ≤ 0.25
155 | YTNR | ≤ 0.25
156 | VYCI | ≤ 0.25
157 | HFHF | ≤ 0.25
158 | ICQK | ≤ 0.25
159 | CSCS | ≤ 0.25
160 | PWNR | ≤ 0.25
161 | MRSA | ≤ 0.25
162 | SRFF | ≤ 0.25
163 | NGTN | ≤ 0.25
164 | VWFE | ≤ 0.25
165 | HPSA | ≤ 0.25
166 | DNRI | ≤ 0.25
167 | GKWP | ≤ 0.25
168 | CIVM | ≤ 0.25

Row | Variant | enrichment ratio
169 | HQMP | ≤ 0.25
170 | GTLK | ≤ 0.25
171 | FETC | ≤ 0.25
172 | AQAF | 0.843
173 | FGIM | 4.76
174 | LPKS | ≤ 0.25
175 | DHFG | ≤ 0.25
176 | WRFF | ≤ 0.25
177 | QLRP | ≤ 0.25
178 | KAQV | ≤ 0.25
179 | ARTV | ≤ 0.25
180 | RKSQ | ≤ 0.25
181 | TYSI | 0.296
182 | HAMW | ≤ 0.25
183 | DNTP | ≤ 0.25
184 | HVLQ | ≤ 0.25
185 | PKVV | ≤ 0.25
186 | RISI | ≤ 0.25
187 | DCTQ | ≤ 0.25
188 | NFKS | ≤ 0.25
189 | ICWN | ≤ 0.25
190 | HDTY | ≤ 0.25
191 | SGFW | ≤ 0.25
192 | GFIG | ≤ 0.25

Row | Variant | enrichment ratio
193 | DAQI | ≤ 0.25
194 | KVTH | ≤ 0.25
195 | PNPD | ≤ 0.25
196 | FRWR | ≤ 0.25
197 | VQQI | ≤ 0.25
198 | KSLH | ≤ 0.25
199 | RKQA | ≤ 0.25
200 | SSPN | ≤ 0.25
201 | VFTA | ≤ 0.25
202 | VCWE | ≤ 0.25
203 | HVFH | ≤ 0.25
204 | QQHP | ≤ 0.25
205 | FACS | ≤ 0.25
206 | NSFE | ≤ 0.25
207 | KRAH | ≤ 0.25
208 | SFTH | ≤ 0.25
209 | LTFF | ≤ 0.25
210 | GIFQ | ≤ 0.25
211 | WIHV | ≤ 0.25
212 | AVMQ | 9.59
213 | YMEP | ≤ 0.25
214 | RLWP | ≤ 0.25
215 | LLII | ≤ 0.25
216 | KVHW | ≤ 0.25

Row | Variant | enrichment ratio
217 | PTVV | ≤ 0.25
218 | NIHL | 1.27
219 | TGKF | ≤ 0.25
220 | MVFY | 0.739
221 | TVEN | ≤ 0.25
222 | MLFQ | ≤ 0.25
223 | ADPT | ≤ 0.25
224 | LRAH | ≤ 0.25
225 | ERKG | ≤ 0.25
226 | NHTK | ≤ 0.25
227 | LCTL | ≤ 0.25
228 | QWKY | ≤ 0.25
229 | QFSM | ≤ 0.25
230 | DKYD | ≤ 0.25
231 | VSLC | 5.07
232 | GRRQ | ≤ 0.25
233 | SDVF | ≤ 0.25
234 | KIDG | ≤ 0.25
235 | AVNY | ≤ 0.25
236 | YPTP | ≤ 0.25
237 | MLMC | ≤ 0.25
238 | IMCP | ≤ 0.25
239 | NCPP | ≤ 0.25
240 | YPTF | ≤ 0.25

Row | Variant | enrichment ratio
241 | DLIY | ≤ 0.25
242 | GCTQ | ≤ 0.25
243 | KRDY | ≤ 0.25
244 | IWCH | ≤ 0.25
245 | EIWP | ≤ 0.25
246 | FHPA | ≤ 0.25
247 | SDTA | ≤ 0.25
248 | PEQD | ≤ 0.25
249 | LMDL | ≤ 0.25
250 | EMTL | ≤ 0.25
251 | INML | 8.36
252 | WPVG | ≤ 0.25
253 | AESW | ≤ 0.25
254 | SLVT | 0.291
255 | LSRC | ≤ 0.25
256 | DKII | ≤ 0.25
257 | IKFA | ≤ 0.25
258 | MGRQ | ≤ 0.25
259 | PQIE | ≤ 0.25
260 | RVPP | ≤ 0.25
261 | EFTH | ≤ 0.25
262 | MICW | ≤ 0.25
263 | FLFL | ≤ 0.25
264 | SFTW | ≤ 0.25

Row | Variant | enrichment ratio
265 | HTHM | ≤ 0.25
266 | MPCV | ≤ 0.25
267 | PWRE | ≤ 0.25
268 | NFRP | ≤ 0.25
269 | WQPT | ≤ 0.25
270 | NSAA | ≤ 0.25
271 | KEHH | ≤ 0.25
272 | ESKV | ≤ 0.25
273 | TQLA | 4.57
274 | LMLW | ≤ 0.25
275 | SVQI | 0.298
276 | IIYL | ≤ 0.25
277 | RMVP | ≤ 0.25
278 | SCKV | ≤ 0.25
279 | IFWP | ≤ 0.25
280 | WSDQ | ≤ 0.25
281 | SPVC | ≤ 0.25
282 | DWII | ≤ 0.25
283 | DSMA | ≤ 0.25
284 | YMWM | ≤ 0.25
285 | GRAA | ≤ 0.25
286 | RQVQ | ≤ 0.25
287 | PPHT | ≤ 0.25
288 | YNNL | ≤ 0.25

Row | Variant | enrichment ratio
289 | PDMT | ≤ 0.25
290 | RYAP | ≤ 0.25
291 | NRRF | ≤ 0.25
292 | IATI | ≤ 0.25
293 | ASQF | ≤ 0.25
294 | KMRN | ≤ 0.25
295 | DAIC | ≤ 0.25
296 | QKCW | ≤ 0.25
297 | KNMR | ≤ 0.25
298 | NWDR | ≤ 0.25
299 | NWHF | ≤ 0.25
300 | KCHR | ≤ 0.25
301 | RRVT | ≤ 0.25
302 | LWVT | ≤ 0.25
303 | IGDG | ≤ 0.25
304 | AWMP | ≤ 0.25
305 | PDSG | ≤ 0.25
306 | RALS | ≤ 0.25
